Substitutions are numbered along the chain they refer to; changes in the protein carry UniProt numbers. Some of the results follow.
T1: RBFOX1 RRM RbFoxmut (Fox-RRM*) (Homo sapiens, UniProt Q9NWB1 109-208, R118D;E147R;N151S;E152T)
T1 sequence: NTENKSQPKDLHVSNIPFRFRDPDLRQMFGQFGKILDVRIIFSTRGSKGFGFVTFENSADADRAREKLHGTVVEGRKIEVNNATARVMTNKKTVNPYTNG

B1: GUCUAUC (DNA:RNA)
RNA: GGGAGACCGGAAUUCAGAUUGUCCGUCUAUCUUAAAUCCCGUCGUAGCCACCA
DNA 1: CAATCTGAATTCCGGTCTCCC
DNA 2: TGGTGGCTACGACGGGATT
B2: AUACUAG (DNA:RNA)
RNA: B1 RNA with G25A, C27A, U28C, A29U, U30A, C31G
DNA 1: CAATCTGAATTCCGGTCTCCC
DNA 2: TGGTGGCTACGACGGGATT
B3: GAAGCGC (DNA:RNA)
RNA: B1 RNA with U26A, C27A, U28G, A29C, U30G
DNA 1: CAATCTGAATTCCGGTCTCCC
DNA 2: TGGTGGCTACGACGGGATT
B4: UUGAAGA (DNA:RNA)
RNA: B1 RNA with G25U, C27G, U28A, U30G, C31A
DNA 1: CAATCTGAATTCCGGTCTCCC
DNA 2: TGGTGGCTACGACGGGATT
B5: AUAAUCC (DNA:RNA)
RNA: B1 RNA with G25A, C27A, U28A, A29U, U30C
DNA 1: CAATCTGAATTCCGGTCTCCC
DNA 2: TGGTGGCTACGACGGGATT
B6: UGGAGCG (DNA:RNA)
RNA: GGGAGACCGGAAUUCAGAUUGUCCUGGAGCGUUAAAUCCCGUCGUAGCCACCA
DNA 1: CAATCTGAATTCCGGTCTCCC
DNA 2: TGGTGGCTACGACGGGATT
B7: UCCUGCU (DNA:RNA)
RNA: B6 RNA with G26C, G27C, A28U, G31U
DNA 1: CAATCTGAATTCCGGTCTCCC
DNA 2: TGGTGGCTACGACGGGATT
B8: CUUCAGG (DNA:RNA)
RNA: B1 RNA with G25C, C27U, U28C, U30G, C31G
DNA 1: CAATCTGAATTCCGGTCTCCC
DNA 2: TGGTGGCTACGACGGGATT
B9: AUUAGAG (DNA:RNA)
RNA: B6 RNA with U25A, G26U, G27U, C30A
DNA 1: CAATCTGAATTCCGGTCTCCC
DNA 2: TGGTGGCTACGACGGGATT
B10: CUUUCUC (DNA:RNA)
RNA: B1 RNA with G25C, C27U, A29C
DNA 1: CAATCTGAATTCCGGTCTCCC
DNA 2: TGGTGGCTACGACGGGATT
B11: UACCAAC (DNA:RNA)
RNA: B1 RNA with G25U, U26A, U28C, U30A
DNA 1: CAATCTGAATTCCGGTCTCCC
DNA 2: TGGTGGCTACGACGGGATT
B12: GCGUGGU (DNA:RNA)
RNA: B1 RNA with U26C, C27G, A29G, U30G, C31U
DNA 1: CAATCTGAATTCCGGTCTCCC
DNA 2: TGGTGGCTACGACGGGATT
B13: UGACGGG (DNA:RNA)
RNA: B6 RNA with G27A, A28C, C30G
DNA 1: CAATCTGAATTCCGGTCTCCC
DNA 2: TGGTGGCTACGACGGGATT
B14: GGCUUCA (DNA:RNA)
RNA: B1 RNA with U26G, A29U, U30C, C31A
DNA 1: CAATCTGAATTCCGGTCTCCC
DNA 2: TGGTGGCTACGACGGGATT
B15: UAGCGUA (DNA:RNA)
RNA: B6 RNA with G26A, A28C, C30U, G31A
DNA 1: CAATCTGAATTCCGGTCTCCC
DNA 2: TGGTGGCTACGACGGGATT
B16: AAACUAU (DNA:RNA)
RNA: GGGAGACCGGAAUUCAGAUUGUCCAAACUAUUUAAAUCCCGUCGUAGCCACCA
DNA 1: CAATCTGAATTCCGGTCTCCC
DNA 2: TGGTGGCTACGACGGGATT
B17: UAACCUC (DNA:RNA)
RNA: B16 RNA with A25U, U29C, A30U, U31C
DNA 1: CAATCTGAATTCCGGTCTCCC
DNA 2: TGGTGGCTACGACGGGATT
B18: GAUCUUA (DNA:RNA)
RNA: B16 RNA with A25G, A27U, A30U, U31A
DNA 1: CAATCTGAATTCCGGTCTCCC
DNA 2: TGGTGGCTACGACGGGATT
B19: GCGAUAU (DNA:RNA)
RNA: B16 RNA with A25G, A26C, A27G, C28A
DNA 1: CAATCTGAATTCCGGTCTCCC
DNA 2: TGGTGGCTACGACGGGATT
B20: AUGAAUU (DNA:RNA)
RNA: B1 RNA with G25A, C27G, U28A, C31U
DNA 1: CAATCTGAATTCCGGTCTCCC
DNA 2: TGGTGGCTACGACGGGATT
B21: CCGUAAC (DNA:RNA)
RNA: B1 RNA with G25C, U26C, C27G, U30A
DNA 1: CAATCTGAATTCCGGTCTCCC
DNA 2: TGGTGGCTACGACGGGATT
B22: CAGUGUG (DNA:RNA)
RNA: B6 RNA with U25C, G26A, A28U, C30U
DNA 1: CAATCTGAATTCCGGTCTCCC
DNA 2: TGGTGGCTACGACGGGATT
B23: UCUAGGC (DNA:RNA)
RNA: B6 RNA with G26C, G27U, C30G, G31C
DNA 1: CAATCTGAATTCCGGTCTCCC
DNA 2: TGGTGGCTACGACGGGATT
B24: CACCGAA (DNA:RNA)
RNA: B16 RNA with A25C, A27C, U29G, U31A
DNA 1: CAATCTGAATTCCGGTCTCCC
DNA 2: TGGTGGCTACGACGGGATT
B25: UUGAGUA (DNA:RNA)
RNA: B6 RNA with G26U, C30U, G31A
DNA 1: CAATCTGAATTCCGGTCTCCC
DNA 2: TGGTGGCTACGACGGGATT
B26: GACCGCU (DNA:RNA)
RNA: B16 RNA with A25G, A27C, U29G, A30C
DNA 1: CAATCTGAATTCCGGTCTCCC
DNA 2: TGGTGGCTACGACGGGATT
B27: ACCCUGU (DNA:RNA)
RNA: B16 RNA with A26C, A27C, A30G
DNA 1: CAATCTGAATTCCGGTCTCCC
DNA 2: TGGTGGCTACGACGGGATT
B28: CAGCGUA (DNA:RNA)
RNA: B16 RNA with A25C, A27G, U29G, A30U, U31A
DNA 1: CAATCTGAATTCCGGTCTCCC
DNA 2: TGGTGGCTACGACGGGATT
B29: GGCUACG (DNA:RNA)
RNA: B1 RNA with U26G, U30C, C31G
DNA 1: CAATCTGAATTCCGGTCTCCC
DNA 2: TGGTGGCTACGACGGGATT
B30: GGUACGC (DNA:RNA)
RNA: B1 RNA with U26G, C27U, U28A, A29C, U30G
DNA 1: CAATCTGAATTCCGGTCTCCC
DNA 2: TGGTGGCTACGACGGGATT
B31: CACGUGU (DNA:RNA)
RNA: B16 RNA with A25C, A27C, C28G, A30G
DNA 1: CAATCTGAATTCCGGTCTCCC
DNA 2: TGGTGGCTACGACGGGATT

Biological target: T1, RBFOX1 RRM RbFoxmut (Fox-RRM*)
Assay: EMSA; HiTS-Eq, 1 nM pool, 10 min; buffer printed only for the single-RNA assays: 10 mM Tris pH 7.5, 150 mM NaCl, 3.4 mM EDTA, 0.001% NP-40, 30 C
Settings: tags: His6 N-terminal (pET28a); label: 5' 32P
How it was run: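 Purified RbFox RRM (wild type or mutant) was equilibrated for 10 min in 50 µL with 1 nM of a 5′-radiolabelled pool of RNA with 7 randomized nucleotides, its flanks annealed to DNA oligonucleotides, across increasing protein concentrations. Free RNA was separated by 8% native PAGE, excised, reverse-transcribed, PCR-barcoded and sequenced on an Illumina HiSeq 2500. Relative association constants came from read-count changes of each variant against the control reaction, normalised to the cognate motif.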

Binder	binding signal
B1	0.0839 KA relative to UGCAUGU
B2	0.118 KA relative to UGCAUGU
B3	0.0729 KA relative to UGCAUGU
B4	0.0875 KA relative to UGCAUGU
B5	0.0712 KA relative to UGCAUGU
B6	0.17 KA relative to UGCAUGU
B7	0.0926 KA relative to UGCAUGU
B8	0.0952 KA relative to UGCAUGU
B9	0.146 KA relative to UGCAUGU
B10	0.075 KA relative to UGCAUGU
B11	0.0684 KA relative to UGCAUGU
B12	0.163 KA relative to UGCAUGU
B13	0.0677 KA relative to UGCAUGU
B14	0.132 KA relative to UGCAUGU
B15	0.147 KA relative to UGCAUGU
B16	0.0741 KA relative to UGCAUGU

Binder	binding signal
B17	0.0733 KA relative to UGCAUGU
B18	0.0946 KA relative to UGCAUGU
B19	0.11 KA relative to UGCAUGU
B20	0.126 KA relative to UGCAUGU
B21	0.0767 KA relative to UGCAUGU
B22	0.208 KA relative to UGCAUGU
B23	0.125 KA relative to UGCAUGU
B24	0.0925 KA relative to UGCAUGU
B25	0.179 KA relative to UGCAUGU
B26	0.0966 KA relative to UGCAUGU
B27	0.12 KA relative to UGCAUGU
B28	0.167 KA relative to UGCAUGU
B29	0.184 KA relative to UGCAUGU
B30	0.113 KA relative to UGCAUGU
B31	0.147 KA relative to UGCAUGU
